PubChem BioAssay AID411 (National Center for Advancing Translational Sciences (NCATS), 2006)
Among all 72,000 compounds or so, about 1,600 (2.2%) were called active. This list was built around the results that the source calls inconclusive (neither active nor inactive); the mix of calls is not that of the screen. The call rests on the fitted dose curve; in most records, active means well fitted inhibition curve with a large enough effect; inconclusive means small, poorly fitted or top-dose-only effect; inactive means flat fitted curve, though single readings scatter. No potency is given beside an inconclusive call; the fits are too rough.
Further: nearly all actives have a fitted effect of over 40% in size.
On the % scale 0 is the no-effect control and ±100 the full control effect; potency means the concentration at half of the fitted maximal effect; tags describe the fitted curve by direction and shape.

What follows are compounds tested against Luciferin 4-monooxygenase (Photinus pyralis) (UniProt P08659) (assay: qHTS Assay for Inhibitors of Firefly Luciferase). Conditions: purified firefly luciferase, luminescence, 8 min; series mostly up to 57.1 µM; activity change, negative = inhibition: at the top concentration.
Sequence of UniProt P08659 (P08659 whole entry, looked up): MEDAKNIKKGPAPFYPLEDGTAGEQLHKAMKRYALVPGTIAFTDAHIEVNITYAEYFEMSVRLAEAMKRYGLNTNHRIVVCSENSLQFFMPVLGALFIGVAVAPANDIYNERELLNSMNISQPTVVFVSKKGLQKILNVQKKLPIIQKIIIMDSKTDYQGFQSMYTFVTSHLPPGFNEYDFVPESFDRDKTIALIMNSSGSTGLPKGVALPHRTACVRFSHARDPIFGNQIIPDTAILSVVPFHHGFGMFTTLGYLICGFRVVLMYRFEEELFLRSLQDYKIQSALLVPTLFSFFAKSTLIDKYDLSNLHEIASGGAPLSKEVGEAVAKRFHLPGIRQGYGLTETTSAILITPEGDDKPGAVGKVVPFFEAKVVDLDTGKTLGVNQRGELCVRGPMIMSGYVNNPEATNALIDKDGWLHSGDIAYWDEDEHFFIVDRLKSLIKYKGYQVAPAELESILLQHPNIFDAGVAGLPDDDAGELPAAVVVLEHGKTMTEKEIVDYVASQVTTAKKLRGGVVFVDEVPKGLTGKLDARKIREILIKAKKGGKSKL
In short: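 Inhibition of light generation by firefly luciferase from ATP and luciferin was profiled with concentration-response curves per sample, ATP held at 10 uM within the enzyme's linear range. Plates were read by luminescence after an 8-minute ambient incubation.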
O=S(=O)(O)c1cc(S(=O)(=O)O)c2c(N=Nc3cccc4ccccc34)c(O)ccc2c1 was tested, and the Potency was inconclusive [inhibitor, single point]. O=C(CC(=O)c1ccccc1)Nc1ccc2c(c1)OCCO2 was tested, and the Potency was active: 20 µM. In the case of O=C(c1cc2ccccc2o1)c1cccs1, the Potency is reported as inconclusive [inhibitor, single point]. C/C(N)=C(/C#N)C(=O)CSc1nc2ccc(C)cc2[nH]1 was tested, and the Potency was inconclusive [inhibitor, single point]. For NC(=O)c1ccsc1NC(=O)CSc1ccccc1F, the “activity change, negative = inhibition” value was inactive: -6.12%. CC(Oc1ccc(Cl)cc1Cl)C(=O)Nc1ncccn1 (stereo not drawn) was tested, and the Potency was inconclusive [inhibitor, partial curve]. For O=C1c2ccccc2S(=O)(=O)N1Cc1nc2ccccc2s1, the Potency was inconclusive [inhibitor, single point]. For C=C1CC[C@@H]2O[C@]2(C)CC[C@@H]2[C@H]1CC2(C)C, the activity change, negative = inhibition was inactive: 1.27% [at 11.4 µM]. In the case of O=C(NCC(=O)N(Cc1cccs1)C(C(=O)NC1CCCC1)c1ccco1)c1cccs1 (stereo not drawn), the “activity change, negative = inhibition” value is reported as inactive: 0.133%. With COc1ccccc1Nc1ccc(C(=O)NC2CCCCC2)cn1 the Potency was inconclusive [inhibitor, full curve, poor fit]. COCCn1c(SCc2nc3ccccc3s2)nc2ccccc21 was tested, and the Potency was inconclusive [inhibitor, single point]. Cn1c(-c2ccc(Br)o2)nc2cc(Br)ccc21 was tested, and the Potency was active: 6.31 µM. COc1ccc(-c2noc(-c3ccc(Cl)cc3)n2)cc1 was tested, and the Potency was inconclusive [inhibitor, full curve, poor fit]. For CCc1ccc(CNc2ccc(N3CCN(C(C)=O)CC3)cc2)cc1, the “activity change, negative = inhibition” value was inactive: -0.538%. With COC(=O)CSc1ncccc1-c1nc2ccccc2[nH]1 the Potency was inconclusive [inhibitor, single point]. COC(=O)c1ccccc1NC(=O)CNC(=O)c1ccco1 was tested, and the Potency was inconclusive [inhibitor, partial curve]. In the case of O=C(CCn1c(=O)sc2ccccc21)Nc1nccs1, the Potency is reported as active: 20 µM. In the case of CCCN(CC1CC1)c1nc(C)nc(Nc2c(Cl)cc(Cl)cc2Cl)c1Cl, the Potency is reported as inconclusive [inhibitor, single point]. With c1ccc(Cc2nc(-c3ccccn3)no2)cc1 the “activity change, negative = inhibition” value was inactive: -18%. With Cc1ccc2nc(-c3ccccc3)cc(C(=O)O)c2c1 the Potency was inconclusive [inhibitor, partial curve]. For COc1ccc2c(c1OC)C(=O)N(c1ccccn1)C2, the Potency was inconclusive [inhibitor, single point]. For O=C(c1cc(-c2ccc3c(c2)OCO3)on1)N1CCN(c2ccccc2)CC1, the Potency was inconclusive [inhibitor, single point]. With O=C(Nc1cnccn1)c1cccc(C(F)(F)F)c1 the Potency was inconclusive [inhibitor, single point]. In the case of COC(=O)c1cccc(NC(=O)c2cc3sccc3n2C)c1, the Potency is reported as inconclusive [inhibitor, partial curve]. For Nc1ccc2oc(-c3cccs3)nc2c1, the Potency was inconclusive [inhibitor, single point]. For COc1ccc(-c2cc3nc(C)cc(NCCO)n3n2)cc1, the Potency was inconclusive [inhibitor, single point]. In the case of CC(=O)Nc1c(Cl)n(C(C)=O)c2ccccc12, the “activity change, negative = inhibition” value is reported as inactive: -1.53%. Cc1ccc(C(=O)OCC(=O)c2ccc(Cl)s2)s1 was tested, and the Potency was active: 15.8 µM. For COc1cccc(C(=O)Nc2cccc(-c3nnc(-c4ccccc4)o3)c2)c1, the Potency was inconclusive [inhibitor, partial curve]. In the case of Cc1ccc(N2C(=O)c3n[nH]c(C)c3C2c2ccco2)cc1 (stereo not drawn), the Potency is reported as active: 15.8 µM. With COC(=O)c1ccc(NC(=O)Cc2ccccc2)cc1 the Potency was inconclusive [inhibitor, single point]. For Cc1ccc2c(CN3C(=O)NC(C)(c4ccc5c(c4)OCO5)C3=O)cc(=O)oc2c1 (stereo not drawn), the Potency was inconclusive [inhibitor, full curve]. In the case of Clc1c(CSc2nc3ccccc3o2)nc2ccccn12, the Potency is reported as inconclusive [inhibitor, partial curve]. For CCOCC(=O)Nc1cc(C(=O)OC)ccc1C(=O)OC, the “activity change, negative = inhibition” value was inactive: 2.83%. For CCCCOC(=O)c1cc2c(cn1)[nH]c1ccccc12, the Potency was inconclusive [inhibitor, single point]. CCn1c(SCC(=O)NC(=O)Nc2ccc3c(c2)OCCO3)nnc1-c1cccs1 was tested, and the Potency was inconclusive [inhibitor, partial curve]. COc1ccc(-c2nnc(SCC(=O)/C(C#N)=C(\C)N)o2)cc1 was tested, and the Potency was active: 5.01 µM. COC(=O)c1cccc(C(=O)Nc2ccc(C)cc2Br)n1 was tested, and the Potency was inconclusive [inhibitor, single point]. For COc1ccc(-c2nnc(SCC(=O)c3cccs3)o2)cc1, the Potency was inconclusive [inhibitor, partial curve]. CCOc1ccc(NS(=O)(=O)c2ccc3[nH]cc(C(=O)NCC4CCCO4)c(=O)c3c2)cc1 (stereo not drawn) was tested, and the “activity change, negative = inhibition” value was inactive: 2.12%. With COCCNc1nc(-c2ccccc2OC)nc2ccccc12 the activity change, negative = inhibition was inactive: -0.692% [at 2.29 µM]. CCOc1ccc(-c2cc(CCCC(=O)NCc3cccnc3)no2)cc1 was tested, and the Potency was active: 12.6 µM. In the case of COc1cc(C(=O)Nc2ccc(N(C)C)cc2)cc(OC)c1OC, the Potency is reported as inconclusive [inhibitor, full curve, poor fit]. With Cc1cc(C)n2nc(C(=O)Nc3ccc4c(c3)OCO4)nc2n1 the Potency was inconclusive [inhibitor, single point]. In the case of Fc1ccc2nc3[nH]c4ccccc4c3nc2c1, the Potency is reported as active: 6.31 µM. With COC(=O)c1ccc(-c2nc3ccc(C)cc3o2)cc1 the Potency was inconclusive [inhibitor, partial curve]. In the case of O=C(O)CCC(=O)N(Cc1cccnc1)Cc1cccc(F)c1, the “activity change, negative = inhibition” value is reported as inactive: 4.62%. CCCC1=C(C(=O)OCC)C(c2ccc(NC(C)=O)cc2)NC(=O)N1 (stereo not drawn) was tested, and the “activity change, negative = inhibition” value was inactive: -1.96%. With CC(=O)OCC(=O)c1ccc2ccn(C(C)=O)c2c1 the Potency was inconclusive [inhibitor, single point]. With CNc1nnc(-c2cccc(N(C)C)c2)s1 the Potency was inconclusive [inhibitor, single point]. With CC1=C(C(=O)Nc2ccccc2)C(c2ccc3c(c2)OCO3)C2=C(CCCC2=O)N1 (stereo not drawn) the “activity change, negative = inhibition” value was inactive: -0.156%. Cc1ccc(-c2nnn(CC(=O)N(Cc3cccs3)C(C(=O)NC3CCCC3)c3ccco3)n2)o1 (stereo not drawn) was tested, and the “activity change, negative = inhibition” value was inactive: 2.54%. For CCn1c(=O)c(C(=O)NCCc2ccccc2)c(O)c2ccccc21, the Potency was inconclusive [inhibitor, full curve]. In the case of Cc1ccc(-n2[nH]c(C)c(C=Nc3ccc(C)cn3)c2=O)cc1, the “activity change, negative = inhibition” value is reported as inactive: -2.48%. With COc1ccc2c(c1)CCc1c(C(=O)NCc3ccco3)noc1-2 the Potency was inconclusive [inhibitor, partial curve]. In the case of CCCN1Cc2cccc(C(=O)Nc3ccc4c(c3)OCCO4)c2C1=O, the Potency is reported as active: 12.6 µM. CCCN(CCC)c1ncnc2c1cnn2-c1ccc(OC)cc1 was tested, and the Potency was active: 15.8 µM. In the case of COc1ccc2nc(C)cc(Nc3ccc(N4CCOCC4)cc3)c2c1, the “activity change, negative = inhibition” value is reported as inactive: 2.21%. CC(=O)N1CC=C2C(C#N)=C(N)C(C#N)(C#N)C(CCc3ccccc3)C2C1 (stereo not drawn) was tested, and the “activity change, negative = inhibition” value was inactive: 0.847%. In the case of O=C(Cc1ccccc1F)Nc1nc(-c2cccs2)cs1, the Potency is reported as inconclusive [inhibitor, single point]. In the case of Cc1cc(O)c(NC(=O)c2ccc(Br)o2)cc1C, the Potency is reported as inconclusive [inhibitor, partial curve]. In the case of COc1cccc(-c2nc3ccc(O)cc3c(=O)o2)c1, the Potency is reported as inconclusive [inhibitor, partial curve]. COc1ccccc1C(=O)Nc1ccc2c(c1)nc(CCNC(C)=O)n2C was tested, and the Potency was inconclusive [inhibitor, single point]. COc1cccc2c(=O)n(CC(=O)NC3CCCC3)ccc12 was tested, and the “activity change, negative = inhibition” value was inactive: 6.29%. In the case of Cc1cccc(C)c1OC[C@H](C)N, the Potency is reported as “inactive”. For CCN1CCN(Cc2ccc(NC(=O)Nc3ccccc3)cc2)CC1, the Potency was active: 12.6 µM. With CCC(C)NC(=O)c1cc(-c2ccc(OC)cc2)on1 (stereo not drawn) the Potency was inconclusive [inhibitor, single point]. For CC(=O)Nc1cccc(NC(=O)Nc2ccc(C(C)=O)cc2)c1, the Potency was active: 12.6 µM. With CCCc1cc(C(=O)Nc2cc(Br)ccc2O)no1 the Potency was inconclusive [inhibitor, partial curve]. For Cn1cccc1-c1nc2ccc(NC(=O)c3ccco3)cc2[nH]1, the Potency was inconclusive [inhibitor, single point]. COc1cc(-c2nnn(CC(=O)NC3CCS(=O)(=O)C3)n2)ccc1OCc1ccccc1 (stereo not drawn) was tested, and the Potency was active: 12.6 µM. For O=C(Nc1ccc(OC(=O)c2cccs2)cc1)c1ccco1, the Potency was active: 25.1 µM. In the case of O=C(Nc1ccc(Cl)cc1)c1ccsn1, the Potency is reported as inconclusive [inhibitor, single point]. For CC(=O)c1ccc(NC(=O)c2noc3c2CCCCC3)cc1, the Potency was inconclusive [inhibitor, partial curve]. CCC(=O)Nc1ccc2oc(-c3ccccc3Br)nc2c1 was tested, and the Potency was inconclusive [inhibitor, full curve]. For Cc1cc(N2CCOCC2)nc2ccc(NC(=O)CCC(=O)N3CCCC(C)C3)cc12 (stereo not drawn), the Potency was active: 25.1 µM. In the case of NC(=O)c1cc2ccc(O)cc2oc1=Nc1ccccc1, the Potency is reported as inconclusive [inhibitor, single point]. In the case of CC(C)Cc1cc(C(=O)NCCc2ccccc2)no1, the Potency is reported as inconclusive [inhibitor, partial curve].
